# Laboratory results taken from PubChem BioAssay AID1345083 (National Center for Advancing Translational Sciences (NCATS), 2018).
# In all, about 94,000 compounds went through this assay and about 6,200 (6.6%) were called active. This list was built around the results that the source calls inconclusive (neither active nor inactive); the mix of calls is not that of the screen. Calls come from the whole dose curve; as a rule, active = well fitted inhibition curve with a large enough effect; inconclusive = small, poorly fitted or top-dose-only effect; inactive = flat fitted curve, though single readings scatter. A potency beside an inconclusive call is a rough fit, not a confirmed value.
# Experiment: Cytotoxic Profiling in HEK 293 Cell Line of Diverse Libraries Using Quantitative High-Throughput Screening; note: nearly all actives have a fitted effect of over 60% in size
# Conditions: HEK 293 viability, ATP luminescence (CellTiter-Glo), 48-72 h; series mostly up to 115 µM
# Procedure, shortened: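 Read-out: CellTiter-Glo ATP luminescence. Cells: HEK 293, 250 cells/well. Exposure: 48 or 72 hr, 37 degree Celsius.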
# Potency is the fitted concentration of half-maximal effect; tags give direction and shape of the fitted curve.
row,Structure (SMILES),Potency
1,CCCOCCCNC(=O)c1c(C)noc1-c1ccc(C(C)(C)C)cc1,active: 35.5 µM
2,COCc1noc([C@@H]2CN(S(=O)(=O)c3c(C)noc3C)C[C@H]2C(N)=O)n1,inactive
3,CC(C)c1ccccc1OCC(=O)c1ccc2c(c1)N(CC(=O)N1CCCCC1)C(=O)CO2,"inconclusive: 10 µM [inhibitor, full curve]"
4,C[S+](=O)([O-])N1CCc2nc(-c3ccc(Cl)cc3)nc(-c3ccccc3)c2C1,inactive
5,Cc1cccc(C)c1-c1cc(C(=O)NCc2ccc(F)cc2)c2cnn(C)c2n1,"inconclusive: 56.2 µM [inhibitor, partial curve, poor fit]"
6,C=CCC1(CO)CCCN(CC(=O)NC2CCCCC2)C1 (stereo not given),inactive
7,Cc1ccc(C)c(Cn2ccn3nc(-c4ccc(F)cc4)c(CO)c3c2=O)c1,active: 35.5 µM
8,CSc1ccc(-c2cccc(C(=O)NCC(=O)N3CCN(c4ncccn4)CC3)c2)cc1,active: 22.4 µM
9,Cc1noc(C)c1CC(=O)N1CCCC(c2noc(COc3ccccc3)n2)C1 (stereo not given),inactive
10,O=C(Nc1cnc(-c2cccc(Cl)c2)nc1)c1ccc(F)cc1,active: 44.7 µM
11,O=C(NCC1CCOCC1)c1ccc2[nH]ccc2c1,inactive
12,CCS(=O)(=O)Nc1ccc(C)n(CC(=O)NC(C)c2ccccc2)c1=O (stereo not given),inactive
13,O=C(Cc1cccc(F)c1)N1CCCC(c2noc(COc3ccccc3)n2)C1 (stereo not given),"inconclusive: 50.1 µM [inhibitor, partial curve, poor fit]"
14,Cc1ccc(S(=O)(=O)Nc2cccn3nc(C4CCC4)nc23)cc1,"inconclusive: 50.1 µM [inhibitor, partial curve, poor fit]"
15,Cc1ncc2c(c1CNC(=O)c1cc(C(C)C)n3ncnc3n1)CCNC2,inactive
16,CNC(=O)c1cc(C)nc2onc(C3CCN(C(=O)c4ccc(C(F)(F)F)cc4)C3)c12 (stereo not given),inactive
17,O=C(c1cc(C2CC2)nc2c1c(C1CCCN1)nn2-c1ccccc1)N1CCC(F)CC1 (stereo not given),"inconclusive: 79.4 µM [inhibitor, partial curve, poor fit]"
18,CCCOc1nccnc1NC1CCN(C(=O)c2cccs2)CC1,"inconclusive: 89.1 µM [inhibitor, single point]"
19,CN1CCCN(C(=O)NCCc2ccccc2)c2ccccc21,"inconclusive: 89.1 µM [inhibitor, single point]"
20,CCC1CN(C(=O)c2ccc3nc[nH]c3c2)CCC(=O)N1Cc1ccccc1 (stereo not given),inactive
21,CN1c2cc(C(=O)Nc3cccc(OC(F)(F)F)c3)ccc2C(=O)N2CCCCC21 (stereo not given),active: 17.8 µM
22,NC(=O)[C@@H]1CN(C(=O)OCc2ccccc2)[C@H]2c3ccccc3O[C@@H]12,"inconclusive: 79.4 µM [inhibitor, partial curve, poor fit]"

row,Structure (SMILES),Potency
1,CC(C)c1nc2c(c(-c3ccc(Cl)cc3)n1)CN([S+](=O)([O-])c1cccs1)CC2,"inconclusive: 89.1 µM [inhibitor, single point]"
2,O=C1CCCCCN1C1CCN(Cc2ccccc2C(F)(F)F)CC1,active: 79.4 µM
3,COc1ccc(CN(C)C(=O)C2(c3ccc(Cl)cc3)CCOCC2)cc1,"inconclusive: 79.4 µM [inhibitor, partial curve]"
4,COc1ccc2[nH]c3c(c2c1)CCN(C)C31CCN(C(=O)c2cccs2)CC1,"inconclusive: 35.5 µM [inhibitor, full curve]"
5,O=C(Nc1ccc(Oc2ccccc2)cc1)N[C@H]1CO[C@H]2[C@@H]1OC[C@@H]2Nc1nccc(-c2cccc(F)c2)n1,"inconclusive: 79.4 µM [inhibitor, partial curve, poor fit]"
6,Cc1ccc(C)c(C(=O)NC2CCN(c3cc(C(F)(F)F)nc(C)n3)CC2)c1,"inconclusive: 44.7 µM [inhibitor, partial curve]"
7,O=C(Cc1ccc(Br)cc1)N1CCCN(C(=O)C2CC2)c2ccccc21,"inconclusive: 56.2 µM [inhibitor, partial curve, poor fit]"
8,CS(=O)(=O)c1ccc(O[C@H]2COCCN(C(=O)c3cnccn3)C2)cc1,inactive
9,COc1ccc(C(=O)NCC(=O)N2CCCCCCNC(=O)CC2c2ccccc2)cn1 (stereo not given),"inconclusive: 39.8 µM [inhibitor, single point]"
10,O=C(Cc1cccc(Cl)c1)N1CCC(C(=O)N2CCC(c3nc4ncccc4[nH]3)CC2)C1 (stereo not given),inactive
11,CCC(=O)Nc1ccc(-c2c(-c3cc(OC)cc(OC)c3)nn(-c3ccc(C)cc3)c2OC(C)=O)cc1,"inconclusive: 89.1 µM [inhibitor, single point]"
12,CN(C)Cc1cn([C@H]2CO[C@H]3[C@@H]2OC[C@H]3O)nn1,inactive
13,Cc1ccccc1C(=O)N1CCC2(CC1)CC(=O)N(c1ccccc1)c1ccccc1O2,"inconclusive: 50.1 µM [inhibitor, partial curve, poor fit]"
14,Cc1noc2c(NCCCn3ccnc3)cc(-c3cccs3)nc12,"inconclusive: 100 µM [inhibitor, partial curve]"
15,Cc1ccc(C(=O)N2CCCC(N3C(=O)c4c(c(C)nn4-c4ccccc4)C3C)C2)cc1 (stereo not given),active: 44.7 µM
16,COc1ccc(CNC(=O)CC[C@H]2CNC(=O)[C@@H]3[C@@H](CCN3Cc3cccc(Cl)c3)N2C)cc1,"inconclusive: 50.1 µM [inhibitor, partial curve, poor fit]"
17,Cn1nc(C2CCCN(C(=O)CCC3CCCC3)C2)n(Cc2ccccc2)c1=O (stereo not given),inactive
18,Cc1cc2cc(C(=O)N3CC[C@@H]4[C@@H](CCC(=O)N4CCN)C3)ccc2o1,inactive
19,CC(=O)Nc1cc(-c2cc(C(=O)NCc3cccnc3)c3c(c2)N(C)CCO3)ccn1,"inconclusive: 100 µM [inhibitor, partial curve, poor fit]"
20,O=C(NCc1ccccc1)C1CCCN1C(=O)c1cccc(-c2cccnc2)c1 (stereo not given),inactive
21,COCCN1CCNc2nc(COc3cccc(F)c3)n(Cc3ccccc3)c2C1=O,"inconclusive: 50.1 µM [inhibitor, partial curve, poor fit]"
22,O=C(NC1CCCCC1)c1ccc2oc(-c3ccncc3)nc2c1,"inconclusive: 126 µM [inhibitor, single point]"

row,Structure (SMILES),Potency
1,O=C(c1ccc2c(c1)OCO2)N1CCC(n2c(=O)[nH]c3ccccc32)CC1,"inconclusive: 89.1 µM [inhibitor, partial curve, poor fit]"
2,CC1(C)C(=O)N(Cc2ccccc2)[C@H]2CN(CC3CCOC3)C[C@H]2[S+]1(=O)[O-] (stereo not given in full),inactive
3,CCc1noc(-c2cn(C3CCN(C(=O)c4cc(Cl)ccc4OC)C3)nn2)n1 (stereo not given),"inconclusive: 35.5 µM [inhibitor, full curve, poor fit]"
4,O=C(Nc1cccc(Cl)c1)c1ccc(N2CC3CC(C2)[C@H]2CCCC(=O)N2C3)nc1 (stereo not given in full),"inconclusive: 70.8 µM [inhibitor, partial curve, poor fit]"
5,O=C1CC2(CCN([S+](=O)([O-])c3cccs3)CC2)Oc2ccccc2N1,"inconclusive: 79.4 µM [inhibitor, partial curve]"
6,Cc1ccccc1C(=O)NC[C@@H]1CC[C@H]2C[C@@H]1C2(C)C,"inconclusive: 100 µM [inhibitor, partial curve, poor fit]"
7,Cn1cc(CN[C@H]2[C@H](O)[C@H](O)C[C@@H]2c2ccccc2)c2ccccc21,"inconclusive: 112 µM [inhibitor, partial curve]"
8,COCC(=O)NC1CCC12CCN(C(=O)Cc1cccnc1)CC2 (stereo not given),inactive
9,COc1ccc(Cn2c(=O)c(C(=O)N3CCN(C(=O)c4ccc(Cl)cc4)CC3)nc3cccnc32)cc1,"inconclusive: 44.7 µM [inhibitor, partial curve]"
10,CN1CCCN(C(=O)c2ccncc2)c2ccccc21,"inconclusive: 79.4 µM [inhibitor, partial curve, poor fit]"
11,COc1ccc(-c2nc(CC3CCN(C(=O)c4ccoc4)C3)no2)cc1 (stereo not given),"inconclusive: 50.1 µM [inhibitor, partial curve, poor fit]"
12,O=c1cc(-c2ccccn2)oc2c(-c3ccc(CO)cc3)nccc12,"inconclusive: 112 µM [inhibitor, partial curve, poor fit]"
13,Cc1noc(C)c1-c1cc2cc(CO)oc2c(Nc2cccnc2)n1,"inconclusive: 100 µM [inhibitor, partial curve]"
14,COCCN1C(=O)[C@H]2CN(Cc3cc(Br)ccc3OC)C[C@H]2C1=O,"inconclusive: 89.1 µM [inhibitor, single point]"
15,O=C(c1cccc(-c2ccccn2)c1)N1CCN(C(=O)c2ccccc2Cl)CC1,"inconclusive: 56.2 µM [inhibitor, partial curve, poor fit]"
16,O=C(CCCc1ccccc1)N1CCC[C@H]1c1nc(-c2ccccc2)no1,"inconclusive: 50.1 µM [inhibitor, partial curve, poor fit]"
17,O=C1CC2(CCN(CC3CCCCC3)CC2)Oc2ccccc21,"inconclusive: 100 µM [inhibitor, partial curve, poor fit]"
18,Cc1cc(=O)n(CC(=O)Nc2ccc3c(c2)OCCO3)c(-c2ccc(Cl)cc2)n1,"inconclusive: 79.4 µM [inhibitor, single point]"
19,COc1ncccc1-c1ncc2c(n1)OCCN(Cc1ccc(F)cc1F)C2=O,inactive
20,Cc1cccc(OCC(=O)N2CCCN(c3cc(-c4ccc(Cl)cc4)[nH]n3)CC2)c1,"inconclusive: 39.8 µM [inhibitor, partial curve, poor fit]"
21,CN1[C@@H](CCC(=O)N2CCN(c3ccccc3)CC2)CNC(=O)[C@@H]2[C@H]1CCN2Cc1ccc(F)cc1,"inconclusive: 39.8 µM [inhibitor, partial curve, poor fit]"
